Results published in PubChem BioAssay (NCI).
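These data come from cells grown in 96-well plates and exposed to compound for 48 hours at five concentrations. At the GI50, growth is halved. TGI marks complete inhibition of growth.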

Tested on: NCI-H322M lung
Experiment: NCI-60 cell line screen, 48 h

COCCOc1ccc2ncc(C#Cc3cncc(C(=O)Nc4ccc(CN5CCN(C)CC5)c(C(F)(F)F)c4)c3)n2n1
GI50: 1010 nM | TGI: 4.7 µM
